# In ChEMBL document CHEMBL4888484, “Replenishing the malaria drug discovery pipeline: Screening and hit evaluation of the MMV Hit Generation Library 1 (HGL1) against asexual blood stage Plasmodium falciparum ,using a nano luciferase reporter read-out” (2022):
# Out of some 150,000 compounds screened, about 540 (0.36%) showed an effect of 50% or more. The list shows a part of the results.
# Tested on: Plasmodium falciparum
# Test: Primary screen in NF54 nanoGlo assay, in single point, at 2uM, 72h; a lower Z score goes with more inhibition
# Format: functional, Erythrocyte
# Conditions: timepoint 72 hour
Compound,% Inhibition [%],Z score
COCC(=O)N1CCN(C(=O)c2c(C)c(C3CC3)nc3ccc(Br)cc23)CC1,-15,2.67
O=C1CCC(=O)N1CC1CN(S(=O)(=O)c2cccc(Cl)c2)C1,-18,2.04
Cc1cc(F)ccc1NC(=O)c1ncoc1-c1ccco1,-7,0.66
CC(CN1CCN2C(=O)NCC2C1)c1cccc(Cl)c1 (stereo not drawn),-6,0.57
CN(Cc1ccc(F)cc1)C(=O)c1ccc2nc(-c3ccccc3)cn2c1,-6,1.28
CC[C@H](C)NC(=O)c1c(O)c2cccc3c2n(c1=O)CCC3,-14,1.27
CN1CCCCCC1=Nc1nc(-c2ccccc2)cs1,1,-0.19
CCOc1ncccc1C(=O)N1C[C@@H]2CC[C@H]1CN(Cc1ccccc1)C2,-4,0.81
CCCCOCC(=O)N1CCC[C@@]2(CCC(=O)N(Cc3cnc(C)cn3)C2)C1,10,-1.28
COc1cccc(C(=O)N2CC[C@]3(OC)CC[C@@H](OC)C[C@H]23)c1C,1,-0.12
O=C(CCNc1ccc2nnnn2n1)Nc1ccc(Br)cc1,-33,3.88
COc1ccc(CNC(=O)N2CCC[C@H](Oc3nccnc3C#N)C2)cc1,-14,2.46
CNC(=O)c1cccc(NC(=O)N[C@H]2CCCc3sccc32)n1,-2,0.35
COc1ccc(-c2cnn3c(C)cc(C)nc23)cc1S(=O)(=O)Nc1ccc(C(C)C)cc1,7,-0.67
CC1(C)CCC(C)(NC(=O)c2oc(C3CC3)nc2C(F)F)CC1,-10,1.13
Cc1cnn(C)c1CN1CCC(F)(c2ccccc2Cl)CC1,-11,1.83
Cc1ccc(NC(=O)[C@H](C)n2nc(-c3ccc(C)cc3)cc(NC(=O)c3ccccc3)c2=O)cc1,0,-0.05
CN(c1ncnc2[nH]cnc12)C1CCCCC1,6,-1.1
O=C(NC1CCS(=O)(=O)CC1)c1cccnc1OCc1ccccc1F,-11,1.37
O=C(COc1ccc(Cl)cc1N1C(=O)C2CCCCC2C1=O)c1ccc(Cl)cc1 (stereo not drawn),6,-0.72
COCCN(CC1CN(Cc2sccc2C)CC1c1cccc(F)c1)C(=O)C(C)C (stereo not drawn),-10,1.74

Compound,% Inhibition [%],Z score
CCN(Cc1nc(C(N)=O)no1)Cc1c(F)cccc1Cl,-6,1.04
Cc1ccc(S(=O)(=O)NCc2c(O)nc3ccc(Cl)cc3c2-c2ccccc2)cc1,1,-0.22
FC(F)(F)Cc1nnc(NCc2ccc3c(c2)OCCO3)s1,-16,1.41
O=C(CNC1(Cc2ccccc2)CCCC1)N1CCOCC1,-11,1.26
CC(C)(O)C#Cc1ccc([C@H]2N[C@@H](CO)[C@H]3CN(c4ccccc4)C[C@H]32)s1,-7,1.36
c1ccc(-c2nc([C@@H]3COCCO3)n(-c3cccc4cccnc34)n2)cc1,-6,1.11
Cc1cc(C(=O)N2CCC3(CC2)CC(=O)N(Cc2ccc(F)c(F)c2)C3)[nH]n1,4,-0.5
CCN(CC)C(=O)Nc1ccc(S(=O)(=O)NCCO)cc1,-12,2.3
CCn1ncc(C2=NO[C@H](C(=O)Nc3ccc(F)cc3F)C2)c1C,6,-0.7
COc1cccc2c1OCCCN(C(=O)CCc1scnc1C)C2,-13,2.36
Cc1ccc(N2CCCC2=O)cc1NC(=O)N1Cc2nc(C)n(C)c(=O)c2C1,-10,1.28
O=S1(=O)CC(O)C(N2CCC(c3ccccc3)CC2)C1 (stereo not drawn),6,-0.65
CC(C)[C@@H](CO)NC(=O)NCc1cc2c(s1)CCC2,-8,0.72
CC[C@H]1CN(CCC(=O)NCCc2ccco2)Cc2ccc(Cl)cc2O1,0,-0.03
COC(=O)C1C2CCC(C2)C1NC(=O)COC1CCCC1 (stereo not drawn),5,-0.84
COC1CS(=O)(=O)CC1NC(=O)NC(C)C1Oc2ccccc2C1C (stereo not drawn),-6,1
COc1ccccc1C(CC(C)C)NC(=O)N(C)C1CCOC1 (stereo not drawn),6,-0.58
C[C@@H](C(=O)N1CCCCCC1)N1CCc2onc(-c3ccccc3)c2C1,-2,0.39
Cc1n[nH]c(C)c1[C@H](C)n1cc(-c2cc(CC(C)C)[nH]n2)nn1,-8,1.56
CN1[C@@H](C(=O)O)C[C@@H](C(=O)NCc2ccoc2)[C@H]1c1ccccc1F,4,-0.79
COC(=O)c1cccc(-c2nccn2CCc2cccc(F)c2)n1,-12,1.56

Compound,% Inhibition [%],Z score
CC(C)C[C@](C)(NCc1cc(C#N)ccc1F)C(N)=O,11,-1.3
O=C1CN(Cc2nc(-c3ccccc3)nn2C2CCCCC2)CCN1,-7,1.19
CC(=O)Nc1ccc(C(=O)N[C@H]2CCC[C@H]2F)nc1,-3,0.31
O=S(=O)(Nc1c(Cl)ccc2nsnc12)c1ccc(Cl)s1,5,-0.54
Cc1nc(NCc2ccc(N3CCNC(=O)C3)cc2)nc(C)c1CC(C)C,5,-0.6
O=C(CN1CCN(c2ccc3c(c2)OCO3)C1=O)Nc1ccc(OC(F)(F)F)cc1,4,-0.61
Cn1cc(S(=O)(=O)NCC2(OCCO)CCCC2)cn1,-14,1.55
CC(C)n1cnc2c1c(=O)n(CCc1ccccc1)c(=O)n2-c1ccc(Cl)cc1,-19,2.43
Fc1ccc2c(c1)CCC2NCc1cnn(C2CC2(F)F)c1 (stereo not drawn),3,-0.53
O=C(C1C2CCC(C2)N1S(=O)(=O)c1ccccc1)N1CCOCC1 (stereo not drawn),-5,0.75
c1cnn(-c2ccc(CN3CCc4cncnc4C3)cc2)c1,-5,0.84
CO[C@H]1COC[C@@H]1NC(=O)C1(N2CCCCC2)CCCCC1,-4,0.8
O=C(NCCOc1ccccc1)c1cnn2c1OCCC2,-6,0.87
CCOC(=O)C1CCC(CNC(=O)NCCn2nnc3cc(C(=O)N(C)C)ccc32)CC1 (stereo not drawn),-2,0.21
CC[C@H]1C(=O)NCCN1Cc1cnc2c(cnn2C(C)C)c1,-7,0.74
C=CCn1c(=O)c2sc(N(CC)CC)nc2n(CC(=O)Nc2cccc(Cl)c2C)c1=O,-9,0.77
Cc1cnc(-c2cccc3ccnn23)nc1N(C)C,-6,0.79
Cc1noc([C@@H]2CN(C(=O)CCc3nc4ccccc4[nH]3)C[C@H]2C(N)=O)n1,-7,1.06
COc1ccc2c(c1)[C@@H](OCCN(C)C)c1cccnc1CC2,-4,0.76
CC(C)(CC#N)CNC(=O)N1CC(F)C1,-7,0.91
O=C(NCC1CCN(C(=O)c2cnn[nH]2)CC1)c1ccoc1,-13,1.29

Compound,% Inhibition [%],Z score
COCCCNC(=O)CN(C)Cc1c(C)nn(-c2ccccc2)c1Cl,3,-0.39
CCS(=O)(=O)CCNc1nnc(C2CCC2)o1,-13,2.46
Cc1cccc(O)c1NC(=O)[C@H]1CC1(F)F,1,-0.11
NC(=O)c1ccccc1OC[C@H]1CC1(Cl)Cl,-13,1.61
CCn1ncc(S(=O)(=O)N[C@H](c2cnn(C)c2)C2CC(O)C2)c1C (stereo partly drawn),3,-0.34
CN(C)c1cnn(CC(=O)N2CCCC[C@H]2c2cccc(F)c2)c(=O)c1,-15,1.5
O=C(c1ccc(F)c(Cl)c1)N1C[C@@H](CO)[C@H](c2ccncc2)C1,-6,1.03
O=C(Cc1c[nH]c2ccccc12)Nc1ccc(Cl)c2ncccc12,32,-0.93
Cc1cc(C)cc(N(CCC#N)C(=O)CN2CCC[C@H]2c2ccc3c(c2)OCCCO3)c1,-2,0.18
O=C(c1cc(-c2ccco2)n[nH]1)N1CCC(N2CCC(Oc3ccccc3F)CC2)CC1,59,-4.88
CCc1nsc(N(C[C@H](C)O)C2CC2)n1,13,-1.72
O=C(CN1CCN(Cc2ccccc2F)CC1)N1CCCc2ccccc21,-13,1.45
CC1CCCC(C)N1S(=O)(=O)c1ccc(NC(=O)CCC(=O)c2ccc3c(c2)OCCO3)cc1 (stereo not drawn),-4,0.64
CC(C)[C@@H](N)CN(C)Cc1ccccc1,-14,2
COc1ccccc1[C@H]1CN(Cc2nc(C)n3ccccc23)C[C@@H]1C(=O)O,-2,0.31
CC[C@H](C)N(CC(=O)N1CCCN(c2ccc(-c3ccccc3)nn2)CC1)C(=O)c1ccc(Cl)cc1,-28,2.5
Cc1cnc(-n2cnnc2)c(-c2ccc(C(=O)N3CC=C[C@@H]3C(C)C)cc2)c1,9,-0.81
Cc1cc(=O)n(Cc2nc(-c3c(F)cccc3F)cs2)cn1,-3,0.4
CC(=O)N1CCN(C(=O)c2coc(CN3CCN(c4cccc(C(F)(F)F)c4)CC3)n2)CC1,-11,1.03
C=C(C)CC(C)C(=O)N1CCCCC1C(O)CC (stereo not drawn),-17,1.85
CS(=O)(=O)Nc1nc(Cc2ccccc2)cs1,-9,1.01
